# According to PubChem BioAssay AID1491 (National Center for Advancing Translational Sciences (NCATS), 2009):
# Records with an inconclusive call do not appear. The call rests on the fitted dose curve; in most records, active means well fitted inhibition curve with a large enough effect in the main read-out, with a control signal flat; inconclusive means small, poorly fitted or top-dose-only effect, or a change in a side signal; inactive means flat fitted curve, though single readings scatter. For part of its entries the source gives two or more results. This list holds those alone. There may be further records. Values given together are repeats in other runs, samples, wells, individuals or studies.
# Target: Neuropeptide S receptor (Homo sapiens) (UniProt Q6W5P4)
# Assay: Confirmation Concentration-Response Assay for Antagonists of the Neuropeptide S Receptor: cAMP Signal Transduction
# Conditions: CHO-NPSR cells, cAMP TR-FRET, antagonist mode
# Text: NIH Chemical Genomics Center [NCGC] NIH Molecular Libraries Probe Production centers Network [MLPCN] MLPCN Grant: X01-DA026210-01 Assay Submitter (PI): Heilig, Markus Alexander NCGC Assay Overview: Neuropeptide S receptor (NPSR), previously known as GPR154, is a recently de-orphanized G protein coupled receptor. Its endogenous ligand is the 20 amino acids peptide Neuropeptide S (NPS). […] NPS and its receptor are found in various tissues. Specifically they are highly expressed in brain areas that have been implicated in modulation of arousal, stress and anxiety. Central administration of NPS in mice produces an unusual profile of activity by inducing wakefulness and arousal, while at the same time suppressing anxiety. Therefore, NPSR may represent a novel drug target for the treatment of sleep and anxiety disorders. […] This change in intracellular cAMP level can be detected by a homogeneous LANCE cAMP assay based on the TR-FRET (time resolved fluorescence resonance energy transfer) between a europium-labeled cAMP tracer complex and a cAMP-specific antibody labeled with Alexa Fluor 647. […] Both emission signals from the FRET donor (620 nm) and the acceptor (665 nm) can be detected by a plate reader in the TRF mode. Expression of result in fluorescence ratio (665 nm/620 nm) helps to normalize differences due to cell density and reagent dispensing. […]
# Potency means the concentration at half of the fitted maximal effect.
# UniProt Q6W5P4, sequence (Q6W5P4 whole entry, looked up): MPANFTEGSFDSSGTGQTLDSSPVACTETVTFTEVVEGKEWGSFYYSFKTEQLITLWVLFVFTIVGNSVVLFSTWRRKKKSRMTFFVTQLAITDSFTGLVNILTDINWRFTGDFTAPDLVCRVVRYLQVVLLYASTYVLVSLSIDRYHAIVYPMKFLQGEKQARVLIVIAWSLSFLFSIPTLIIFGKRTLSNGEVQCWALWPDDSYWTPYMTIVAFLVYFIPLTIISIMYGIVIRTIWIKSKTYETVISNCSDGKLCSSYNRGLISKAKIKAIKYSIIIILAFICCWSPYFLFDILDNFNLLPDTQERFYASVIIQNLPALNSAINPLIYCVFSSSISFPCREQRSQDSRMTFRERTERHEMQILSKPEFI
smiles,measurement,value
COc1ccc(C2c3c(ncn(CCN4CCOCC4)c3=N)Oc3ccc4ccccc4c32)cc1OC (stereo unspecified),Potency,"active: 1.58, 2.24, 1.26, 12.6 µM [separate samples]"
